Test results from paper PMC4336329 (PLoS ONE, 2015).
The campaign covered roughly 310,000 compounds. About 2,200 (0.71%) showed an effect of 50% or more. Effects have a minus sign here. The list shows a part of the results.

biological target: human ether-à-go-go-related gene (hERG) potassium channel (human, UniProt Q12809); experiment: primary screen, population patch clamp on CHO cells stably expressing hERG
Sequence (Q12809 whole entry, looked up): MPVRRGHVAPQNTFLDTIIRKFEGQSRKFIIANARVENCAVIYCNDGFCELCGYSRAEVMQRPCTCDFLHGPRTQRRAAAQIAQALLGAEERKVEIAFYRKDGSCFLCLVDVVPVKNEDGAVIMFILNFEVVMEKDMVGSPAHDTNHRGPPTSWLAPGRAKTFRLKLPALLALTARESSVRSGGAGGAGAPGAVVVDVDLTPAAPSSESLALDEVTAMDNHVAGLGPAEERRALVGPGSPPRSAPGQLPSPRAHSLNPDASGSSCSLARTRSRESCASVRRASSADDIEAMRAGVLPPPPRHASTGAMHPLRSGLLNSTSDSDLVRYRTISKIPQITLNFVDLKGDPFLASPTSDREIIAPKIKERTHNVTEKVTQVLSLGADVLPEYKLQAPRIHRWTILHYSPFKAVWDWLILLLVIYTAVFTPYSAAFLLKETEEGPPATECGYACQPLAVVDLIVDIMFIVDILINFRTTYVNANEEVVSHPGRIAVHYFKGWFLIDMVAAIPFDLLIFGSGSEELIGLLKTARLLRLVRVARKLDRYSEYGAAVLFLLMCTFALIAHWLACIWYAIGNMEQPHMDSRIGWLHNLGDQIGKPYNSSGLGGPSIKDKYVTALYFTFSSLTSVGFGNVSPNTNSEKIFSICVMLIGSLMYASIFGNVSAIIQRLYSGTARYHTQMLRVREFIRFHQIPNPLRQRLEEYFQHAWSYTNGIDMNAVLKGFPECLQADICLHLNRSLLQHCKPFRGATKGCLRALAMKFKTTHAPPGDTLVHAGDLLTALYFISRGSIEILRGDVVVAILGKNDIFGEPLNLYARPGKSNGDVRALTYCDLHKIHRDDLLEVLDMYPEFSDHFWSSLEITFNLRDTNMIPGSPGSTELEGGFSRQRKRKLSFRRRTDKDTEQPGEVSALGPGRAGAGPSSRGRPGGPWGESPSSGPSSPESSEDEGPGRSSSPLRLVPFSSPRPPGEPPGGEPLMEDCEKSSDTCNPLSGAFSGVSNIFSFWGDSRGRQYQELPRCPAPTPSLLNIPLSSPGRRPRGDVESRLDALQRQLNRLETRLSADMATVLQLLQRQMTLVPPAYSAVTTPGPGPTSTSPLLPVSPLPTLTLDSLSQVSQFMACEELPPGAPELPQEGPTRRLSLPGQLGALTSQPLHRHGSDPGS

Row | Structure (SMILES) | hERG current change (%, negative = inhibition) at 1uM
1 | NC(=O)C1=C[C@@H](c2ccccc2)C[C@@H](OCc2ccc(CO)cc2)O1 | 3.7%
2 | CCc1ccc(S(=O)(=O)/N=C2/C=C(Sc3ncn[nH]3)C(=O)c3ccccc32)cc1 | 19.3%
3 | CC1(C)Cc2nc3sc4c(NCCO)ncnc4c3cc2CS1 | 12.7%
4 | O=C(NCC1CCOCC1)C1CCC(=O)N(Cc2cccc(C(F)(F)F)c2)C1 (stereo not drawn) | 15.2%
5 | Cn1c(SCC(=O)N/N=C/c2ccc(O)c(O)c2)nc2ccccc21 | 7.04%
6 | COC(=O)c1ccc(NC(=O)C2CC2)o1 | 15.4%
7 | COc1ccc(S(=O)(=O)N2CCCC2C(=O)Nc2nc3c(s2)CCCC3)cc1 (stereo not drawn) | 10%
8 | Cc1ccc(C(=O)Nc2cccc(C(=O)O)c2)cc1S(=O)(=O)N1CCOCC1 | 11.8%
9 | CC(=O)c1cccc(OCC(=O)N2CCN(CC(=O)Nc3cccc(F)c3)CC2)c1 | -6.24%
10 | COCCCn1c(=N)c(C(=O)NC2CCCCC2)cc2c(=O)n3ccccc3nc21 | -81.6%
11 | COc1ccc(OCCCC(=O)Nc2cccc(SC)c2)cc1 | 10.7%
12 | COc1ccc(OCCNC2CCCC2)cc1 | 9.54%
13 | COc1ccc(C)cc1NC(=O)CN1CCN(C/C=C/c2ccccc2)CC1 | -45.2%
14 | Cc1cc(CC(C)C)n(-c2nc3ccccc3c(=O)n2OCc2ccccc2)n1 | 8.84%
15 | CC1CC(=O)N(c2ccc(NCc3ccc(Cl)cc3)c([N+](=O)[O-])c2)C1=O (stereo not drawn) | 8.91%
16 | CCn1nc(C(=O)OC2CCOC2=O)c2ccccc2c1=O (stereo not drawn) | 9.55%
17 | CCCC(C)C(=O)Nc1ccncc1 (stereo not drawn) | 10.5%
18 | CC(=O)Nc1ccc2c(CSc3nncs3)cc(=O)oc2c1 | -6.6%
19 | CCCSC1=C(C#N)C(c2ccc(Cl)cc2Cl)CC(=O)N1 (stereo not drawn) | 11.8%
20 | CCSCc1nc(N)nc(NCCc2ccccc2)n1 | 13.2%
21 | O=Cc1ccc(N2CCCC2)c([N+](=O)[O-])c1 | 13.7%
22 | CN(C)CC(=O)c1c[nH]c2ccccc12 | 9.19%
23 | COCCNC(=O)COc1ccc(Nc2ccccc2)cc1 | 1.8%

Row | Structure (SMILES) | hERG current change (%, negative = inhibition) at 1uM
24 | COc1ccccc1N1CCN(CC(O)c2ccc3cc[nH]c3c2)CC1 (stereo not drawn) | -50%
25 | CCc1noc(C)c1C(=O)OCC(=O)N(CCOC)c1c(N)n(Cc2ccccc2)c(=O)[nH]c1=O | 19.4%
26 | CC(NS(=O)(=O)OCC(Cl)(Cl)Cl)c1ccc(Br)cc1 (stereo not drawn) | 2.61%
27 | Cc1ccc(NC(=O)CCN2C(=O)C3C4CCC(C4)C3C2=O)cc1Cl (stereo not drawn) | 7%
28 | COc1cccc(NC2SC(=O)N(c3ccccc3)C2=O)c1 (stereo not drawn) | 11.3%
29 | Cc1ccc(C)c(N2CCN(C(=O)CN(C)S(=O)(=O)c3ccc4c(c3)CCC(=O)N4)CC2)c1 | 6.28%
30 | COC(=O)N/N=C/c1cn(CCOc2ccccc2OC)c2ccccc12 | 5.38%
31 | COCCn1c(C)cc(/C=C2/SC(=O)N(C(C)C(=O)OC)C2=O)c1C (stereo not drawn) | -1.19%
32 | CCc1nc2cc(C)nn2c2nc3ccccc3n12 | -15.4%
33 | Cc1cc(S(=O)(=O)NCC(c2ccccc2)c2ccccc2)ccc1-n1cnnn1 | 4.03%
34 | O=[N+]([O-])c1cc(-c2nc(-c3ccncc3)no2)ccc1Cl | 13.4%
35 | CCCCc1nc(N2CCN(C(=O)c3ccco3)CC2)c(C#N)c2c1CCCC2 | 5.01%
36 | COc1ccc(NS(=O)(=O)c2cccc(C(=O)N(C)Cc3cccs3)c2)cc1 | 5.16%
37 | CC(=O)NC(Cc1c[nH]c2ccccc12)C(=O)N/N=C/c1ccccc1 (stereo not drawn) | 14.7%
38 | O=C(NCc1ccc(Cl)cc1)c1ccc2ccccc2n1 | 14.7%
39 | CC1(C)Oc2ccc(C(=O)NNC(=O)Nc3ccccc3)cc2NC1=O | 11.3%
40 | COc1ccc(OCc2cc(C(=O)N(C)Cc3nnc(C)o3)no2)c(Cl)c1 | 12.8%
41 | O=C1NC(=O)C(Nc2cccc3ccccc23)S1 (stereo not drawn) | 10.2%
42 | Cc1cc(=O)oc2cc(OCC3CC(c4ccc(N(C)C)cc4)=NO3)ccc12 (stereo not drawn) | 10.1%
43 | CN(Cc1ccccc1)C(=O)CCS(=O)(=O)c1ccc2c(c1)NC(=O)CS2 | 15%
44 | COC(=O)c1c(N2C(=O)[C@H]3[C@@H](C2=O)[C@]2(C(=O)Nc4c(C)cccc42)N2CCC[C@@H]32)sc(C)c1C | 12.2%
45 | COc1cc(C(=O)NCCNc2nc3c(C)c(C)ccc3cc2C#N)cc(OC)c1OC | 11.4%
46 | COc1ccccc1COc1ccc2c(C)c(CC(=O)O)c(=O)oc2c1C | 19.7%

Row | Structure (SMILES) | hERG current change (%, negative = inhibition) at 1uM
47 | CCn1cc(C(=O)NCc2ccco2)c(=O)c2cc(S(=O)(=O)N3CCCCCC3)ccc21 | -1.17%
48 | COc1ccc(N(CC(=O)NC2CCCC2)C(=O)c2ccc(C)s2)cc1OC | 18.2%
49 | O=C(Cc1coc(-c2ccc(F)cc2)n1)NCc1ccccc1 | 16.2%
50 | CCC(C(=O)NC(C)CCc1ccco1)n1nc(C)n2c(cc3occc32)c1=O (stereo not drawn) | 7%
51 | Cc1ccc(C)c(CNS(=O)(=O)c2ccc3c(c2)C(C)(C)C(=O)N3C)c1 | 3.6%
52 | CN1/C(=C\C=C(C#N)C#N)C(C)(C)c2ccccc21 | 2.94%
53 | CCOc1ccc(C(=O)OCC(=O)Nc2cc(C)on2)cc1OCC | -16.1%
54 | COC(=O)c1c(-c2ccc3ccccc3c2)csc1NC(=O)Cc1ccc(OC)c(OC)c1 | 10.1%
55 | CCC(CC)C(=O)Nc1ccc(Sc2ccc([N+](=O)[O-])cc2)cc1 | 0.864%
56 | COCCNC(=S)N1CCN(c2cccc(C(F)(F)F)c2)CC1 | 10.2%
57 | O=C(CCc1ccccc1)NCCS(=O)(=O)N1CCN(c2ccccc2)CC1 | -1.05%
58 | Cc1nnc(SCC(=O)N2CC(C)OC(C)C2)n1-c1ccccc1 (stereo not drawn) | 7.77%
59 | CCN(CC)CCCNC(=O)C1CCN(C(=O)c2oc3cc4sc(N(C)C)nc4cc3c2C)CC1 | 6.69%
60 | NC(=O)c1ccc[n+](CC(=O)Nc2ccccc2C(=O)O)c1.[Cl-] | 2.91%
61 | CSc1ccc(S(=O)(=O)NC2CCCCCC2)cc1 | 0.919%
62 | C=CCOC(=O)C1=C(C)NC(SCC)=C(C#N)C1c1ccc(Cl)cc1 (stereo not drawn) | 14%
63 | CC(O)c1ccc(OCCN(C)c2ccccn2)cc1 (stereo not drawn) | 13.4%
64 | CCOc1cccc(CNc2nnnn2C)c1 | 15.9%
65 | CCN(CC)S(=O)(=O)c1ccc(/C=C/C(=O)OCC(=O)c2c(N)n(C)c(=O)n(C)c2=O)cc1 | 12.2%
66 | Cc1cccc(NC(=O)NCCc2ccc(Cl)cc2)c1 | 16.1%
67 | COc1ccc(N(C(=O)Cn2nnc(-c3ccc(Cl)cc3)n2)C(C(=O)NCC2CCCO2)c2ccncc2)cc1 (stereo not drawn) | 7.6%
68 | Cc1ccc(S(=O)(=O)N/N=C2/CC(=O)CC(C)(C)C2)cc1[N+](=O)[O-] | 4.64%
69 | Cc1ccc(C(=O)CSc2ncnc3ccccc23)o1 | 2.02%

Row | Structure (SMILES) | hERG current change (%, negative = inhibition) at 1uM
70 | Cc1ccc(S(=O)(=O)CCC(O)c2ccc(Cl)cc2)cc1 (stereo not drawn) | 10.7%
71 | COc1cccc(/C=C(/C(=O)OCC(=O)NCC2CCCO2)c2ccccc2)c1 (stereo not drawn) | 11.3%
72 | O=C(O)c1cnn2c(C(F)F)cc(C3CC3)nc12 | 6.54%
73 | Cc1cc(C)cc(NC(=O)N2CCC(NC(=O)c3ccccc3C)CC2)c1 | 14.4%
74 | Cn1c(=O)[nH]c2ncn(C)c2c1=O | 5.73%
75 | CCOc1ccc([N+](=O)[O-])cc1CNCCc1ccccc1.Cl | -13.8%
76 | O=C(O)C1CCCN1C(=O)OCC1c2ccccc2-c2ccccc21 (stereo not drawn) | 12.1%
77 | COc1ccc(S(=O)(=O)NC(C)C(=O)NCC2CCCO2)cc1OC (stereo not drawn) | 18.4%
78 | COc1cc2c(cc1OC)C(c1ccc(-c3ccc(Cl)cc3Cl)o1)=NCC2 | 13.2%
79 | C=C(C)COc1ccc(-c2n[nH]c(C)c2Oc2ccccc2OC)c(O)c1 | 1.2%
80 | CN1CCC(C)(O)C2CCCCC21 (stereo not drawn) | 8.69%
81 | CCNc1nc(Oc2ccc(=O)[nH]n2)nc(N2CCOCC2)n1 | 20.2%
82 | O=C(NCc1ccc(Cl)cc1Cl)c1ccc2nc[nH]c2c1 | 10.6%
83 | O=c1[nH]c2ccc(S(=O)(=O)N3CCN(c4ccc(F)cc4)CC3)cc2o1 | -4.24%
84 | CN(C)S(=O)(=O)c1cc(C(=O)NCc2ccccc2)c(Cl)cc1Cl | -1.09%
85 | CN(/N=C/c1ccncc1)c1cnc2ccccc2n1 | 12%
86 | CC(=O)CSc1nnc(-c2ccc(S(=O)(=O)N3CCCC3)cc2)n1C | 19.6%
87 | O=C(N/N=C/c1ccccn1)c1cc(-c2ccncc2)nc2ccccc12 | 8.53%
88 | CC(=O)c1ccc(N(CC(=O)NC2CCCCC2)C(=O)CNC(=O)c2cccs2)cc1 | 16.4%
89 | NC(=O)C1CNc2ccccc2O1 (stereo not drawn) | -1.31%
90 | CC(=O)Nc1cccc(OCC(=O)Nc2ccccc2)c1 | 10%
